Source: the supplement of paper PMC12217912
The list shows a part of the results. The full chains were built here from the parent and the listed change. Values near 0.05 are background.

B1: TEV protease; numbered along this chain (parent)
chain: MGESLFKGPRDYNPISSSICHLTNESDGHTTSLYGIGFGPFIITNKHLFRRNNGTLVVQSLHGVFKVKDTTTLQQHLVDGRDMIIIRMPKDFPPFPQKLKFREPQREERICLVTTNFQTKSMSSMVSDTSCTFPSGDGIFWKHWIQTKDGQCGSPLVSTRDGFIVGIHSASNFTNTNNYFTSVPKNFMELLTNQEAQQWVSGWRLNADSVLWGGHKVFMVKPEEPFQPVKEATQL

Variants of: B1
Assay: raw area under fraction-flipped curve 0-4 h after induction (AUC4h, not background-subtracted), DNA-recorder readout of cleavage of the substrate (dimensionless); higher = more cleavage of the substrate by the protease variant
Conditions: temperature: 34 °C; time window: 0-4 h after rhamnose induction
Description: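 In vivo DNA recorder in E. coli TOP10(DE3) ΔrhaA at 34 °C. Each TEVp single-site mutant (parent TEVp 0) is paired with a single-site variant of the 7-mer TEVs (canonical ENLYFQ|S). The substrate sits between flexible linkers in a Bxb1-sfGFP-TEVs-SsrA fusion, so cleavage stabilises Bxb1 and speeds flipping of a recombination array, read by NGS. The value is the raw area under the fraction-flipped curve over 0-4 h after rhamnose induction (AUC4h), with ≥20 reads per time point. It is not background-subtracted; inactive controls average about 0.047.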
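Further: Bxb1 expression induced with 0.2% (w/v) L-rhamnose at OD600 near 0.5, cultures sampled hourly, flipped fraction per protease–substrate barcode pair counted by paired-end Illumina sequencing.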

Variant	area with substrate ENAYFQS	area with substrate ENDYFQS	area with substrate ENNYFQS	area with substrate ENQYFQS	area with substrate ENRYFQS	area with substrate ENVYFQS	area with substrate ENCYFQS	area with substrate ENFYFQS	area with substrate ENHYFQS	area with substrate ENKYFQS	area with substrate ENSYFQS	area with substrate ENEYFQS	area with substrate ENGYFQS	area with substrate ENTYFQS	area with substrate ENWYFQS	area with substrate ENMYFQS	area with substrate ENPYFQS	area with substrate ENYYFQS	area with substrate ENIYFQS
K216E	0.0664	0.0599	0.0585	0.0619	0.0717	0.0692													
Y34P	0.0407	0.0608	0.0356	0.0508	0.0557		0.0505	0.0552	0.0534	0.0632	0.0584								
F92Q	0.0514	0.0562	0.0548	0.0579		0.0721	0.0543		0.0615		0.048	0.0527	0.0624	0.0642	0.0438				
D137M	0.0662	0.0606	0.0738	0.059	0.0613	0.0888	0.0715	0.0617	0.0386	0.0486	0.062	0.0671	0.058	0.0603		0.0776	0.0633	0.0596	
M188V	0.0606	0.0657		0.064	0.067	0.0694	0.0603	0.0484		0.0566	0.0378		0.0718	0.0637			0.0703	0.0654	
F173V	0.0474	0.0611	0.0607	0.0613	0.0613	0.054		0.09	0.0666	0.0555	0.0523	0.0509	0.0589	0.0605		0.0746			
W212T	0.0621	0.0692	0.0531	0.0573	0.0377			0.049			0.0569	0.0548		0.0425	0.0613		0.0707		
I84M	0.0658	0.0674	0.0684	0.0568	0.043	0.0697	0.0727	0.0639	0.0639	0.0595	0.057	0.0529	0.0679		0.0567	0.0709	0.0742	0.0529	
I84Y	0.0567					0.0542	0.0555	0.0438	0.06		0.0528		0.0626	0.0374		0.0388	0.062		0.0618
R87L	0.0542	0.0608	0.0612	0.0618	0.0716		0.0706	0.064			0.0537	0.0625		0.034	0.0634		0.0788		0.103
T72M	0.0512	0.0599	0.0502			0.0731	0.064		0.0572		0.108	0.0712	0.0605		0.0573		0.0636	0.0545	
I167M	0.055	0.0559		0.0657	0.0909		0.065		0.0643		0.0699			0.0545	0.0663				
M83H	0.076	0.0477		0.067	0.0497	0.062	0.0504	0.0524	0.0586			0.056	0.0603	0.0483				0.0601	
G213P	0.0735			0.0626								0.0433					0.0604	0.0627	
E223P	0.0533	0.0636	0.0691	0.0467	0.0488	0.0663	0.0696	0.0518		0.0576	0.0682	0.0663		0.0619				0.0659	
D82C	0.0661	0.0457				0.0489	0.0502	0.0591	0.0485		0.0636	0.0335	0.0703			0.0626		0.0578	
Q59S	0.0584	0.0743	0.0567	0.067	0.0598		0.0558	0.0613		0.0801	0.0545	0.0688		0.109		0.0756		0.0638	
W199T	0.0567	0.0682	0.058	0.0603	0.0664		0.0601		0.0473	0.0384	0.0609	0.0553			0.0661		0.0626		0.0641
C111Q	0.0621	0.0462		0.0622			0.0717		0.045		0.0579	0.0724	0.0673		0.0522				
F6L	0.0686				0.0767	0.0683		0.0489		0.0619		0.0729							
H215Y	0.0447		0.0782	0.0358	0.0722	0.0545		0.0624				0.0873	0.0604						
K46G	0.0622	0.0566	0.0662	0.0593	0.0458	0.064	0.0596	0.0765	0.0536	0.0409		0.0596	0.0648	0.0596	0.0339	0.0678	0.055		0.0874
F41M	0.059	0.055	0.0373	0.0622	0.0634	0.0651	0.0653	0.0783	0.0768	0.0575	0.0574	0.0557		0.0687		0.0775			0.112
F41E	0.0494	0.0584	0.0467		0.0463	0.0482	0.0276	0.0488	0.0441		0.0517	0.0661	0.0501	0.0493		0.0483		0.0434	0.0544
H143V	0.0501	0.0547	0.0648	0.0614		0.0502	0.0347	0.0545		0.0493	0.06	0.0689	0.0591	0.0568				0.0473	0.0792
L156F	0.062	0.0647	0.0264	0.0568	0.0728	0.0587					0.0646	0.0569	0.0433	0.054			0.0647		0.0703
E3K	0.0531	0.0464		0.0487		0.0827		0.0657			0.0593	0.061	0.0658					0.0579	0.215
S26I	0.0425	0.0319	0.0798	0.0559	0.0531	0.0631	0.0539	0.0581	0.0587		0.0657	0.0691	0.0524	0.0735	0.0445				
T114G	0.0581		0.0574	0.0542	0.0765	0.0861		0.0607	0.0691		0.0668	0.0277				0.0964	0.047		
